# According to PubChem BioAssay AID504832 (National Center for Advancing Translational Sciences (NCATS), 2011):
# The campaign covered roughly 310,000 compounds. About 18,000 (5.8%) were called active. The inconclusive results got no clear call from the source; some entries with a clear call stand among them for comparison. Calls come from the whole dose curve; as a rule, active = well fitted inhibition curve with a large enough effect; inconclusive = small, poorly fitted or top-dose-only effect, or another doubt; inactive = no such curve, though single readings can be large or run the other way. No potency is given beside an inconclusive call; the fits are too rough.
# Experiment: Primary qHTS for delayed death inhibitors of the malarial parasite plastid, 48 hour incubation
# Details: P. falciparum luciferase growth in erythrocytes; series mostly up to 28.7 µM
# In short: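 Luminescence readout; reporter = integrated firefly luciferase in P. falciparum. RBC culture at 2% hematocrit, 0.1% parasitemia final, 37 C/5% CO2; decreased signal taken as growth inhibition.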
# Potency is the fitted concentration of half-maximal effect; tags give direction and shape of the fitted curve.
row,SMILES,Potency
1,COc1cccc2cc(-c3nnc(SCC(=O)Nc4nc(C)cs4)n3C)oc12,"inconclusive [inhibitor, full curve]"
2,CS(=O)(=O)N(CCC#N)Cc1ccc(/C=C2\C(=O)Nc3ccccc32)o1,"inconclusive [inhibitor, partial curve, poor fit]"
3,CCOC(=O)C1=C(C)NC(=O)NC1c1ccc(OC)c(CN2CCOCC2)c1 (configuration not stated),"inconclusive [inhibitor, partial curve, poor fit]"
4,O=C(NCc1ccc2c(c1)OCO2)NC12CC3CC(CC(C3)C1)C2,"inconclusive [inhibitor, single point]"
5,CCOc1ccc(C2=NNC(c3cccs3)=Nc3ccc(OC)cc32)cc1OCC,active: 11.7 µM
6,CC(=O)c1c(N)[nH]c(-c2ccccc2)nc1=S,"inconclusive [inhibitor, single point]"
7,CCN(CC)S(=O)(=O)c1ccc2[nH]cc(C(=O)NCCCN3CCCCC3C)c(=O)c2c1 (configuration not stated),active: 10.4 µM
8,COc1ccccc1C(=O)N/N=C(\C)c1ccc(NC(=O)Cc2ccccc2)cc1,"inconclusive [inhibitor, single point]"
9,CC(C)CCNC(=O)c1ccc2c(SCC(=O)O)c3c(nc2c1)CCCC3,"inconclusive [inhibitor, single point]"
10,Cc1ccc(-c2nnc(C)c(N3CC(C)OC(C)C3)n2)cc1 (configuration not stated),"inconclusive [inhibitor, partial curve, poor fit]"
11,CCOc1ccccc1NC(=O)C(NCC1CCCCC1)c1ccccc1 (configuration not stated),"inconclusive [inhibitor, partial curve]"
12,O=C(Nc1ccc(NS(=O)(=O)c2ccc([N+](=O)[O-])cc2)cc1)c1ccco1,"inconclusive [inhibitor, partial curve, poor fit]"
13,Cc1cc(C)nc(SCNC(=O)c2ccc(F)cc2)n1,inactive
14,CCCCNC(=O)C1CCN(C/C(C)=C/c2ccccc2)CC1,"inconclusive [inhibitor, single point]"
15,COc1ccc(N2CC(C(=O)Nc3nnc(SCCC4OCCO4)s3)CC2=O)cc1 (configuration not stated),"inconclusive [inhibitor, single point]"
16,O=C(O)COc1ccc(/C=N/NC(=O)c2cn(-c3ccccc3)nc2-c2ccccc2)cc1,inactive
17,CN(C)/C=C\C(=C/C(=O)C(F)(F)F)Nc1ccccc1Oc1ccccc1,"inconclusive [inhibitor, single point]"
18,COc1ccc(/C=N/NC(=O)c2cc(-c3ccccc3)nc3ccccc23)c(C(=O)O)c1OC,inactive
19,CNc1ccc(S(=O)(=O)NCC(=O)NCCCc2ccccc2)cc1[N+](=O)[O-],"inconclusive [inhibitor, partial curve]"
20,COc1ccc(CCC(=O)NCCS(=O)(=O)N2CCN(c3ccccc3F)CC2)cc1,inactive
21,CCCS(=O)(=O)c1c(S(=O)(=O)CCC)c2c(N)cccn2c1C(=O)c1ccc(F)cc1,active: 10.4 µM
22,CN1C(=O)S/C(=C\c2ccc(-n3cncn3)cc2)C1=O,inactive
23,CSc1nnc2c3c4c(sc3c(=O)n(-c3ccccc3)n12)CC(C)(C)OC4,active: 0.738 µM
24,N#Cc1ccc(-c2ccc(C3Nc4ccccc4C(=O)N3O)o2)cc1 (configuration not stated),"inconclusive [inhibitor, single point]"

row,SMILES,Potency
1,CCOC(=O)CCc1c(C)c(C#N)c2[nH]c3ccccc3n2c1=O,"inconclusive [inhibitor, single point]"
2,CCNC(=S)NS(=O)(=O)c1ccccc1,inactive
3,C=CCNC(=S)NS(=O)(=O)c1cccs1,inactive
4,Cc1cccc(N(CC(=O)NCC2CCCO2)C(=O)CNS(=O)(=O)c2ccc(Cl)cc2)c1 (configuration not stated),inactive
5,Cc1nc2sc(C(c3ccccc3)N3CCN(c4ccccc4F)CC3)c(O)n2n1 (configuration not stated),"inconclusive [inhibitor, partial curve]"
6,O=[N+]([O-])c1ccc(S(=O)(=O)NCC(c2cccnc2)N2CCc3ccccc32)cc1 (configuration not stated),active: 11.7 µM
7,O=C(N1CCN(Cc2ccccc2)CC1)C(Cl)(Cl)Cl,active: 10.4 µM
8,O=C(c1cc(Br)ccc1OC(F)F)N1CCN2CCCC2C1 (configuration not stated),"inconclusive [inhibitor, single point]"
9,COCC1CCCCN1C(=O)c1cccc(OC2CCN(C(=O)C3CC3)CC2)c1 (configuration not stated),"inconclusive [inhibitor, partial curve, poor fit]"
10,CCOC(=O)N1CCN(C(=O)CN(c2cccc(C(F)(F)F)c2)S(=O)(=O)c2ccccc2)CC1,"inconclusive [inhibitor, full curve, poor fit]"
11,Cc1ccc(S(=O)(=O)c2cc(Nc3ccccc3)ccc2O)cc1,"inconclusive [inhibitor, single point]"
12,CC(C)(C)c1ccc(C(=O)NNc2cc(N3CCOCC3)nc(N3CCOCC3)n2)cc1,active: 11.7 µM
13,Cc1cccc(Oc2nc(-c3ccccn3)nc3ccccc23)c1,active: 1.85 µM
14,O=C(NCC1OCCc2ccccc21)C1COc2ccccc2O1 (configuration not stated),"inconclusive [inhibitor, partial curve, poor fit]"
15,C[C@@H]1CC[C@H]2C(=O)N3[C@@H](CC[C@@H](C)[C@@H]3c3ccc(Br)cc3)C(=O)N2[C@H]1c1ccc(Br)cc1,"inconclusive [inhibitor, single point]"
16,O=C1NCCc2c1[nH]c1ccc([N+](=O)[O-])cc21,inactive
17,Cc1cc2cc(CN(Cc3ccco3)C(=O)C3CCCCC3)c(=O)[nH]c2cc1C,"inconclusive [inhibitor, partial curve, poor fit]"
18,CCCCCNC(=O)c1cn(CC)c2cc(N3CCN(C)CC3)c(F)cc2c1=O,"inconclusive [inhibitor, partial curve, poor fit]"
19,CCn1c(-c2ccccc2Cl)nn(CC(=O)Nc2cc(Cl)ccc2Cl)c1=S,"inconclusive [inhibitor, partial curve, poor fit]"
20,O=C(CCC(=O)Nc1ccc(Cl)cc1Cl)N/N=C/c1ccc([N+](=O)[O-])o1,"inconclusive [inhibitor, partial curve, poor fit]"
21,CCCCn1c(N)c(N(CCOC)C(=O)c2c(CC)noc2C)c(=O)[nH]c1=O,"inconclusive [inhibitor, single point]"
22,Cc1ccc(OCc2nc3ccccc3[nH]2)cc1,inactive
23,CC1CCCCN1C(=O)c1cc(S(=O)(=O)N2CCCCC2)c[nH]1 (configuration not stated),inactive
24,Cc1ccc(OC(=O)c2ccc(S(=O)(=O)N(C)C)cc2)c(-n2nc3ccccc3n2)c1,inactive

row,SMILES,Potency
1,O=C(c1ccc(S(=O)(=O)N2CCCC2)cc1)N1CCN(c2ccccc2)CC1,inactive
2,CC(C)Cc1nc2ccccc2n1CCc1ccccc1,active: 9.28 µM
3,CN1CCN(Cc2nc3ccccc3c(=O)n2Cc2nc(-c3ccccc3F)cs2)CC1,"inconclusive [inhibitor, single point]"
4,O=[N+]([O-])c1ccc(CSc2nc3ccccc3o2)cc1,inactive
5,O=C(OC1CCOC1=O)c1cccc(S(=O)(=O)Nc2ccc(F)cc2)c1 (configuration not stated),inactive
6,CCC(CO)[n+]1c(C)cc(/C=C2\Sc3ccccc3N2Cc2ccccc2)cc1C (configuration not stated),active: 0.37 µM
7,CCOc1ccc(NC(=O)CN(C)C(=O)CCc2ccccc2Cl)cc1OCC,inactive
8,COc1ccc([C@H]2CC(=O)C=C(c3ccc4cc[nH]c4c3)C2)cc1,"inconclusive [inhibitor, single point]"
9,CCOC(=O)c1c(C)[nH]c(C(=O)OCC(=O)NCCc2ccc(OCC)c(OCC)c2)c1C,active: 13.1 µM
10,COc1ccc(C(=O)c2oc3ccc(OC)cc3c2NC(C)=O)cc1,inactive
11,COc1ccc(NC(=O)c2ccc(S(=O)(=O)N3CCCCCC3)cc2)c(OC)c1,inactive
12,COc1ccccc1-c1nnc(Nc2nc3c(OC)cccc3s2)o1,"inconclusive [inhibitor, partial curve, poor fit]"
13,Oc1ccccc1O,"inconclusive [inhibitor, single point]"
14,CC1CCCC(NC(=O)c2ccc3c(c2)N(Cc2ccccc2)C(=O)CS3=O)C1C (configuration not stated),active: 16.5 µM
15,CCOc1ccc(NC(=O)CC(Cc2cc(C)cc(C)c2)C(=O)O)cc1 (configuration not stated),inactive
16,Cc1cccc(-n2nnc3c(=O)n(CC(=O)Nc4cc(C)on4)cnc32)c1,inactive
17,O=C(CSc1nnc(CNC(=O)C23CC4CC(CC(C4)C2)C3)n1-c1ccc(F)cc1)Nc1ccccc1,"inconclusive [inhibitor, partial curve]"
18,O=C1CC(C(=O)NCCc2ccccc2)SC(=Nc2ccccc2)N1 (configuration not stated),inactive
19,COc1ccc(Cc2nnc(NC(=O)CS(=O)(=O)c3ccc(C)cc3)s2)cc1OC,inactive
20,COc1ccc(NC(=O)CN(C)S(=O)(=O)c2ccc(Cl)cc2)cn1,"inconclusive [inhibitor, single point]"
21,Cc1ccnc(NC(=O)c2ccc(Cl)c(NC(=O)C(C)Oc3ccccc3)c2)c1 (configuration not stated),"inconclusive [inhibitor, single point]"
22,CCCc1nnc(NC(=O)c2c(O)c3cccc4c3n(c2=O)CCC4)s1,inactive
23,CCc1cccc(OCC2Cn3c(nc4c3c(=O)[nH]c(=O)n4C)O2)c1 (configuration not stated),inactive
24,Cc1ccc(S(=O)(=O)N(C)Cc2cc3ccccc3[nH]c2=O)cc1,"inconclusive [inhibitor, single point]"
